# Hit rate of the full screen: of about 94,000 compounds, about 4,000 (4.3%) were called active. Inconclusive results, whose numbers are uncertain, are shown with a selection of clear calls. Calls follow the shape of the dose curve; as a rule, active = well fitted inhibition curve with a large enough effect; inconclusive = small, poorly fitted or top-dose-only effect; inactive = no such curve, though single readings can be large or run the other way. Potencies beside an inconclusive call are fits to weak or partial responses and may not hold up.
# Assay: Cytotoxic Profiling in NIH 3T3 Cell Line of Diverse Libraries Using Quantitative High-Throughput Screening; also: nearly all actives have a fitted effect of over 55% in size
# Conditions: NIH 3T3 viability, CellTiter-Glo ATP luminescence, 48-72 h; activity change, negative = cytotoxicity: at 96.7 µM (top of the series) unless noted; series mostly up to 96.7 µM
# How it was run: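 NIH 3T3 cells at 400 cells/well received 23 nL of compound by pintool and were incubated 48 or 72 h at 37 °C. Viability was read as ATP-coupled CellTiter-Glo luminescence.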
# % is scaled to controls: 0 for no effect and ±100 for the full control effect; potency is read from the fitted curve at half-maximal effect; tags tell the direction and shape of the fitted curve.
SMILES,Potency,"activity change, negative = cytotoxicity"
CCOC(=O)[C@H]1[C@@H](O)C(=O)N(Cc2ccccc2)C12CCN(C(=O)CC(C)(C)C)CC2,active: 22.4 µM,–
Cc1nc2scc(CC(=O)NCCC(C)C)n2c(=O)c1-c1cc(C)n(-c2cc(F)ccc2F)n1,"inconclusive: 22.4 µM [inhibitor, full curve]",–
COC(=O)CNC(=O)N1c2ccccc2CC1c1nc(C2CC2)no1 (configuration not stated),–,inactive: -1.42%
COc1ccc2nc3n(c2c1)[C@@H](CNC(=O)NC(C)C)COC3,–,inactive: 3.55% [at 138 µM]
Cc1ccc2nc(C3CCCN(CC(C)C)C3)[nH]c(=O)c2c1 (configuration not stated),inactive,–
CCOCC(=O)N1CCC2(CC1)NCCc1c2[nH]c2ccccc12,"inconclusive: 39.8 µM [inhibitor, partial curve]",–
CCN1c2cc(C(=O)Nc3ccc(F)c(Cl)c3)ccc2C(=O)N2CCCCC21 (configuration not stated),active: 25.1 µM,–
O=C(Nc1ccc(Oc2ccccc2)cc1)O[C@@H]1CO[C@H]2[C@@H]1OC[C@@H]2NC(=O)c1ccccn1,"inconclusive: 20 µM [inhibitor, partial curve, poor fit]",–
CCc1cccc(NC(=O)c2ccc3c(c2)N(CC)C2CCCCN2C3=O)c1 (configuration not stated),"inconclusive: 14.1 µM [inhibitor, full curve]",–
Cc1ccc(C)c(-c2cc3c(=O)n(CCNC(=O)c4c(F)cccc4Cl)ccn3n2)c1,"inconclusive: 50.1 µM [inhibitor, partial curve, poor fit]",–
COc1ccccc1OCCNC(=O)c1cc2n(n1)CC(c1ccc(Cl)cc1)OC2 (configuration not stated),"inconclusive: 50.1 µM [inhibitor, partial curve, poor fit]",–
Cc1noc(C2CC3(CCN(C(=O)CCc4c[nH]c5ccccc45)CC3)CN2C)n1 (configuration not stated),–,inactive: -14.1%
CN(Cc1cn[nH]c1-c1ccccc1)CC1CCCN(CCc2ccc(F)cc2)C1 (configuration not stated),"inconclusive: 79.4 µM [inhibitor, partial curve]",–
COc1cccc(CN2CCOC3CCN(Cc4ccc(F)cc4F)CC3C2=O)c1 (configuration not stated),"inconclusive: 79.4 µM [inhibitor, partial curve, poor fit]",–
O=C1c2c(nc(COc3ccc(F)cc3F)n2Cc2ccccc2)NCCN1CCOc1ccccc1,"inconclusive: 31.6 µM [inhibitor, full curve, poor fit]",–
CC(C)c1nncn1C1CCN(S(=O)(=O)c2ccc(Br)cc2)CC1,"inconclusive: 44.7 µM [inhibitor, partial curve, poor fit]",–
CCc1noc(-c2cn(C3CCN(C(=O)c4cccc(C(F)(F)F)c4)C3)nn2)n1 (configuration not stated),"inconclusive: 28.2 µM [inhibitor, partial curve]",–
Cc1ccc(-n2c(C3CCN(C(=O)CCC4CCCC4)CC3)n[nH]c2=O)cc1,"inconclusive: 2.51 µM [inhibitor, full curve, poor fit]",–
O=C(c1cc(-c2ccc(Cl)cc2Cl)c2cccn2n1)N1CCCC1,"inconclusive: 50.1 µM [inhibitor, partial curve, poor fit]",–
Cc1ccc(C(=O)NC2CCN(c3cc(-c4ccc(F)cc4)[nH]n3)C2)cc1 (configuration not stated),"inconclusive: 50.1 µM [inhibitor, partial curve, poor fit]",–
COC[C@@H]1CN(C(=O)CCn2ccnc2)C[C@H]1c1ccncc1,–,inactive: -11%

SMILES,Potency,"activity change, negative = cytotoxicity"
C[S+](=O)([O-])c1ccc(-c2ncc3c(n2)OCCN(Cc2ccc(F)cc2F)C3=O)cc1,–,inactive: -17%
COc1cc(OC)c(OC)cc1CN1CCC(O)(CN2CCCC2)CC1,"inconclusive: 89.1 µM [inhibitor, partial curve, poor fit]",–
O=C(NCc1ccccc1)c1ccc2c(c1)OCCN(c1ccccc1)C2,"inconclusive: 15.8 µM [inhibitor, full curve, poor fit]",–
O=C(NCc1cccc(Cl)c1)c1nc2sccn2c1-c1ccc(C(F)(F)F)cc1,"inconclusive: 28.2 µM [inhibitor, full curve]",–
COc1ccc(N2CC(c3noc(-c4ccc(C(C)(C)C)cc4)n3)CC2=O)cc1 (configuration not stated),"inconclusive: 44.7 µM [inhibitor, partial curve, poor fit]",–
CCOc1ccccc1N1CCN(c2ncncc2-c2nc(-c3ccccc3)no2)CC1,"inconclusive: 70.8 µM [inhibitor, single point]",–
COc1ccccc1-c1cc(-c2cccnc2)nc2c(C)noc12,"inconclusive: 50.1 µM [inhibitor, partial curve, poor fit]",–
CO[C@H]1C(=O)N(C2CCN(C(=O)Cc3c[nH]c4ccccc34)CC2)[C@H]1c1ccncc1,–,inactive: 1.31%
C[S+](=O)([O-])c1ccc(-c2cnc3n[nH]c(-c4ccc5c(c4)OCO5)c3n2)cc1,"inconclusive: 20 µM [inhibitor, partial curve, poor fit]",–
O=C(Nc1ccc2c(c1)OCCO2)N1CCC(Cc2nc(-c3ccncc3)n[nH]2)C1 (configuration not stated),–,inactive: -29.2%
COc1ccc(Nc2nc(-c3ccccc3F)no2)cc1OC,"inconclusive: 44.7 µM [inhibitor, partial curve, poor fit]",–
O=[S+]([O-])(NC1CCN(c2ccnc3ccnn23)C1)c1cccs1 (configuration not stated),"inconclusive: 50.1 µM [inhibitor, partial curve, poor fit]",–
COC(=O)N(C)Cc1cccc(N2CCN([S+](=O)([O-])c3c(Cl)cccc3Cl)CC2)c1F,"inconclusive: 20 µM [inhibitor, full curve]",–
COc1ccc(C(=O)Nc2ncc(-c3cccc(N(C)C)c3)c3c2OCC3)cc1,"inconclusive: 63.1 µM [inhibitor, partial curve, poor fit]",–
CCc1ocnc1C(=O)N1CCCC(c2[nH]ncc2-c2ccc(F)cc2)C1 (configuration not stated),"inconclusive: 39.8 µM [inhibitor, full curve]",–
O=C(Cc1ccccc1)N1CCC2(CNS(=O)(=O)c3cccnc3O2)C1 (configuration not stated),"inconclusive: 56.2 µM [inhibitor, partial curve, poor fit]",–
O=C1N(c2ccccc2)c2ccccc2C12CCN(CC1CC1)C2 (configuration not stated),"inconclusive: 50.1 µM [inhibitor, partial curve, poor fit]",–
O=C(NC1CCN(c2ccnc3ccnn23)CC1)c1ccccc1,"inconclusive: 39.8 µM [inhibitor, partial curve, poor fit]",–
COc1cccc(CN2C(=O)OC3(CCN(C(=O)CCc4cccnc4)CC3)C2(C)c2cccnc2)c1 (configuration not stated),"inconclusive: 28.2 µM [inhibitor, full curve, poor fit]",–
COc1ccc(-c2cc(N3CCN(C(=O)c4ccc(F)c(F)c4)CC3)n[nH]2)cc1,"inconclusive: 31.6 µM [inhibitor, partial curve]",–
C#CCNC(=O)C1CCCCN1Cc1ccc(-c2cc(F)ccc2OC)cc1 (configuration not stated),"inconclusive: 50.1 µM [inhibitor, partial curve, poor fit]",–

SMILES,Potency,"activity change, negative = cytotoxicity"
CCOCCNC(=O)CNC(=O)c1cccc(-c2ccc(SC)cc2)c1,"inconclusive: 44.7 µM [inhibitor, partial curve, poor fit]",–
O=C1NCN(Cc2ccc(Cl)cc2)C12CCN(Cc1ccc(F)cc1)CC2,active: 14.1 µM,–
CN(C)c1cccc(NC(=O)c2ccc3c(c2)NC(C)(COc2ccccc2)CO3)c1 (configuration not stated),"inconclusive: 56.2 µM [inhibitor, partial curve, poor fit]",–
COc1ccc(-c2cc3c(=O)n(CCNC(=O)c4ccc(OC)nc4)ccn3n2)cc1,–,inactive: -1.53%
COCCCn1c(C)cnc1C1CCN(C(=O)C2(c3ccc(OC)cc3)CC2)C1 (configuration not stated),–,inactive: -13.3%
COc1ccccc1C(=O)N1CCC2(CC1)COc1ccccc1CN2,"inconclusive: 56.2 µM [inhibitor, partial curve, poor fit]",–
CC(=O)N1CCC(c2nn(-c3ccccn3)c(=O)[nH]2)CC1,–,inactive: 1.3% [at 138 µM]
O=C(c1ccc(Cl)cc1)N1CC2(CCN(Cc3c[nH]c4ccccc34)CC2)Cc2ccccc21,active: 11.2 µM,–
CSCC(=O)Nc1nc2c(s1)C[C@]1(C)CC[C@@H]3[C@H](OC(=O)[C@H]3C)[C@H]1[C@@H]2C,active: 100 µM,–
COCCOC1CN(C2CCN(Cc3ccc(F)c(F)c3)CC2)C12CCCCC2 (configuration not stated),"inconclusive: 39.8 µM [inhibitor, partial curve, poor fit]",–
CC1(c2ccccc2)N(Cc2cccnc2)C(=O)OC12CCN(C(=O)c1ccc(Oc3ccccc3)cc1)CC2 (configuration not stated),"inconclusive: 20 µM [inhibitor, full curve, poor fit]",–
CC1(CNCc2ccccc2)COc2ccc(C(=O)N3CC(O)C3)cc2N1 (configuration not stated),"inconclusive: 112 µM [inhibitor, partial curve, poor fit]",–
Cc1ccccc1NC(=O)c1ccc2c(c1)OCCN(C1CCC1)C2,"inconclusive: 10 µM [inhibitor, full curve, poor fit]",–
COc1ccc(S(=O)(=O)N2CCCC(Cc3noc(-c4ccncc4)n3)C2)cc1 (configuration not stated),–,inactive: -26.8%
Cc1nc(CN2CC3(CCN(C)C3)c3cc(C(=O)NCc4cccs4)ccc32)cs1 (configuration not stated),active: 79.4 µM,–
CC(C)CNC(=O)c1cc(-c2ccc(F)cc2)c2nncn2n1,active: 44.7 µM,–
Cc1ccc(O)c(CN2CC[C@@H](c3ccc4ccccc4c3)[C@H](O)C2)n1,"inconclusive: 39.8 µM [inhibitor, full curve, poor fit]",–
O=C1NC(C(=O)N2CCN(Cc3ccccc3)CC2)CN1Cc1ccccc1 (configuration not stated),–,inactive: 2.64%
CC(C)(C)c1ccc(C(=O)Nc2nc3c(s2)C[C@@H]2[C@](C)(CO)[C@H](O)CC[C@@]2(C)[C@@H]3CC(=O)N2CCOCC2)cc1,active: 35.5 µM,–
COc1ccc(C(=O)N2CC[C@@H]3COCCN(Cc4ccncc4)[C@@H]3C2)c(OC)c1,–,inactive: -7.47%

# Source: PubChem BioAssay AID1345082 (National Center for Advancing Translational Sciences (NCATS), 2018)
